In the supplement of paper PMC12217912:
The other results are listed elsewhere or left out. The full chains were built here from the parent and the listed change. Values near 0.05 are background.

B1: TEV protease; numbered along this chain (parent)
chain: MGESLFKGPRDYNPISSSICHLTNESDGHTTSLYGIGFGPFIITNKHLFRRNNGTLVVQSLHGVFKVKDTTTLQQHLVDGRDMIIIRMPKDFPPFPQKLKFREPQREERICLVTTNFQTKSMSSMVSDTSCTFPSGDGIFWKHWIQTKDGQCGSPLVSTRDGFIVGIHSASNFTNTNNYFTSVPKNFMELLTNQEAQQWVSGWRLNADSVLWGGHKVFMVKPEEPFQPVKEATQL

Variants of: B1
Assay: raw area under fraction-flipped curve 0-4 h after induction (AUC4h, not background-subtracted), DNA-recorder readout of cleavage of the substrate (dimensionless); higher = more cleavage of the substrate by the protease variant
Details: temperature: 34 °C; time window: 0-4 h after rhamnose induction
Method: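 In vivo DNA recorder in E. coli TOP10(DE3) ΔrhaA at 34 °C. Each TEVp single-site mutant (parent TEVp 0) is paired with a single-site variant of the 7-mer TEVs (canonical ENLYFQ|S). The substrate sits between flexible linkers in a Bxb1-sfGFP-TEVs-SsrA fusion, so cleavage stabilises Bxb1 and speeds flipping of a recombination array, read by NGS. The value is the raw area under the fraction-flipped curve over 0-4 h after rhamnose induction (AUC4h), with ≥20 reads per time point. It is not background-subtracted; inactive controls average about 0.047.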
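Also: Bxb1 expression induced with 0.2% (w/v) L-rhamnose at OD600 near 0.5, cultures sampled hourly, flipped fraction per protease–substrate barcode pair counted by paired-end Illumina sequencing.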

Row | Variant | area with substrate ENLYFAS | area with substrate ENLYFFS | area with substrate ENLYFHS | area with substrate ENLYFIS | area with substrate ENLYFKS | area with substrate ENLYFMS | area with substrate ENLYFPS | area with substrate ENLYFSS | area with substrate ENLYFTS | area with substrate ENLYFDS | area with substrate ENLYFES | area with substrate ENLYFNS | area with substrate ENLYFRS | area with substrate ENLYFWS | area with substrate ENLYFCS | area with substrate ENLYFVS | area with substrate ENLYFYS | area with substrate ENLYFLS | area with substrate ENLYFGS
1 | Y179A | 0.0579 | 0.0606 | 0.0551 | 0.0413 | 0.0706 | 0.0599 | 0.0666 | 0.0805 | 0.0552 | – | – | – | – | – | – | – | – | – | –
2 | T181F | 0.0602 | 0.0287 | 0.0487 | 0.058 | 0.0592 | 0.0605 | 0.0486 | – | – | 0.0552 | 0.0459 | 0.0575 | 0.0557 | 0.0555 | – | – | – | – | –
3 | V183D | 0.0549 | 0.0555 | 0.0487 | 0.0449 | 0.0645 | 0.0542 | 0.0579 | 0.0394 | – | – | 0.0564 | 0.0536 | 0.0572 | – | 0.0484 | 0.0572 | 0.0543 | – | –
4 | V183P | 0.0538 | 0.0625 | – | 0.0626 | 0.0618 | 0.048 | 0.0524 | 0.0678 | 0.0628 | 0.0564 | – | 0.0841 | – | – | 0.041 | 0.0485 | 0.0509 | – | –
5 | V183W | 0.0556 | 0.0708 | 0.0533 | 0.068 | 0.0586 | 0.0638 | 0.0578 | 0.075 | 0.0497 | 0.0544 | 0.0656 | 0.0621 | – | 0.0653 | 0.0455 | 0.0722 | – | 0.0545 | –
6 | P184F | 0.0408 | 0.0647 | 0.0592 | 0.0521 | – | 0.0167 | 0.0619 | 0.0499 | 0.0579 | 0.0706 | 0.0526 | – | – | 0.0576 | 0.0511 | 0.0607 | – | – | 0.0673
7 | K185C | 0.0424 | 0.0589 | 0.0339 | 0.0553 | 0.0523 | 0.0978 | 0.0578 | 0.0504 | 0.058 | – | 0.0798 | 0.0551 | 0.0597 | 0.0565 | – | 0.0505 | 0.0629 | 0.0654 | –
8 | K185M | 0.043 | 0.0628 | 0.0669 | 0.0599 | 0.056 | 0.0678 | 0.058 | 0.045 | 0.0619 | – | 0.0834 | 0.0644 | 0.0535 | 0.0601 | 0.0554 | 0.0231 | 0.0599 | 0.0575 | –
9 | K185S | 0.0752 | 0.0505 | – | 0.0568 | 0.0712 | 0.0494 | 0.0553 | – | 0.0605 | 0.0916 | 0.0711 | – | – | – | – | 0.0603 | – | 0.0623 | –
10 | F187D | 0.0559 | 0.0786 | 0.0522 | 0.0314 | – | 0.0504 | 0.0381 | 0.054 | 0.0586 | 0.0487 | 0.0391 | 0.0534 | 0.0609 | – | – | – | 0.0669 | 0.0558 | –
11 | F187R | 0.0632 | – | 0.0529 | 0.0534 | 0.0467 | 0.0549 | 0.0525 | 0.0537 | – | – | 0.0475 | 0.0529 | – | 0.0689 | 0.048 | 0.0354 | 0.0485 | 0.0425 | –
12 | F187Y | 0.0643 | 0.0645 | 0.036 | 0.0387 | 0.0512 | 0.0579 | 0.0597 | 0.0565 | 0.0641 | 0.0519 | – | – | – | 0.0553 | 0.0633 | 0.044 | 0.0583 | 0.0632 | –
13 | M188S | 0.0566 | 0.0629 | – | 0.0652 | – | – | 0.0664 | 0.0697 | 0.0473 | 0.0557 | 0.0588 | 0.0687 | – | 0.0538 | 0.0736 | – | – | 0.0613 | –
